These are yes or no findings as the source states them, for the method shown. Binding seen in cells or lysates may run through a third protein. Some results given as binding are weak or reduced against the parent protein; the word gives no strength. Where a sequence is shown, tags or fusion partners need not be part of it. Values belong to the molecule of their own block, whether it stands above or below them.
Experiments:
[1] = biological target: T1, EH domain of POB1 fused to GST (human) (UniProt Q8NFH8); test: pull-down; Epsin1 pull down with GST-POB1 EH domain and its mutants; data not shown; only the target purified
T1 sequence: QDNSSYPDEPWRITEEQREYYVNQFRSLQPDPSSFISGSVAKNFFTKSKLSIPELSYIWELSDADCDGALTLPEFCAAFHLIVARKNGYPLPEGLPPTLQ

The chains behind the UniProt entries cited, without tags or fusion partners.
UniProt Q9Y6I3: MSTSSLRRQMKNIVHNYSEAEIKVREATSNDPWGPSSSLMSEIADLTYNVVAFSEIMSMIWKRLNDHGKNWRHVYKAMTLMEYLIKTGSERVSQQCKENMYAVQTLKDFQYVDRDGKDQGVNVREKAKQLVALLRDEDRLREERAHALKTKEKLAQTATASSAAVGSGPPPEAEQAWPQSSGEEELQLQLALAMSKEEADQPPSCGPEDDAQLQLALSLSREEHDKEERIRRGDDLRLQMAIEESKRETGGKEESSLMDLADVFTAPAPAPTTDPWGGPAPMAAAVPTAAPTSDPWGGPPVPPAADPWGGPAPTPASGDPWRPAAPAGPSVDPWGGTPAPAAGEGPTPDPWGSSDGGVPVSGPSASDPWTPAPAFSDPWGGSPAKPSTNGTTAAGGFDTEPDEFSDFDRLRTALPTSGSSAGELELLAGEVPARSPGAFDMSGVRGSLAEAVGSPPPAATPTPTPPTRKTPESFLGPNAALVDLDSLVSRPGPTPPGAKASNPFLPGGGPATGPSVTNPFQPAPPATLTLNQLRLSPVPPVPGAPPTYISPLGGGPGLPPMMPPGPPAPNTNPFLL

[2] = biological target: T2, GST-POB1 EH domain F344A (human) (UniProt Q8NFH8); test: as above
T2 sequence: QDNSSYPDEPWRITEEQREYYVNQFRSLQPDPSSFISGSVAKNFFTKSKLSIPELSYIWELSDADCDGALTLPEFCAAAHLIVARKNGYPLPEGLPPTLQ

[3] = biological target: T3, GST-Eps15 C-terminal construct B (623-650) (mouse) (UniProt P42567); test: pull-down; GST-Eps15 fragments on glutathione-sepharose beads incubated with lysate of Hek 293Phoenix cells expressing Myc-POB1; EH buffer, 2 h at 4 °C; anti-Myc blot; only the target purified
T3 sequence: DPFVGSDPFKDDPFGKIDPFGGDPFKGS

[4] = biological target: T4, GST-Eps15 C-terminal construct A (623-640) (mouse) (UniProt P42567); test: as above
T4 sequence: DPFVGSDPFKDDPFGKID

[5] = biological target: T5, GST-Eps15 C-terminal construct D (623-670) (mouse) (UniProt P42567); test: as above
T5 sequence: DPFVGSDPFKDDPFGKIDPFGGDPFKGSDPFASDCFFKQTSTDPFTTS

[6] = biological target: T6, GST-Eps15 C-terminal construct F (623-690) (mouse) (UniProt P42567); test: as above
T6 sequence: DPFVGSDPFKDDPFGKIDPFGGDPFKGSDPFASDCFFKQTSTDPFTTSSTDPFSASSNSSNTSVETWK

[7] = biological target: T7, GST-Eps15 C-terminal construct M (623-743) (mouse) (UniProt P42567); test: as above
T7 sequence: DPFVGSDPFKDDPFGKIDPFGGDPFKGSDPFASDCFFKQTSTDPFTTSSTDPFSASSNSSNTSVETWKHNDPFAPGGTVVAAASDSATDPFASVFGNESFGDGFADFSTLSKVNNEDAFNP

[8] = biological target: T8, GST-Eps15 C-terminal construct N (670-743) (mouse) (UniProt P42567); test: as above
T8 sequence: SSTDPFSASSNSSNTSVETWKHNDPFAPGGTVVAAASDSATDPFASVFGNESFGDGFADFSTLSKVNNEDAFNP

[9] = biological target: T9, GST-Eps15 C-terminal construct C (623-660) (mouse) (UniProt P42567); test: as above
T9 sequence: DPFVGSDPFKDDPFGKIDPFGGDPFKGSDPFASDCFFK

[10] = biological target: T10, GST-Eps15 C-terminal construct G (623-700) (mouse) (UniProt P42567); test: as above
T10 sequence: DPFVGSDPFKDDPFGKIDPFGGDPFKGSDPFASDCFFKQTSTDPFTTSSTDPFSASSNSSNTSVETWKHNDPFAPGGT

[11] = biological target: T11, GST-POB1 EH domain K351A (human) (UniProt Q8NFH8); test: pull-down; GST fusions (50 ug) on glutathione-sepharose beads incubated with Hek293 cell extract; EH buffer, 2 h at 4 °C; endogenous Eps15 detected with anti-Eps15 blot; only the target purified
T11 sequence: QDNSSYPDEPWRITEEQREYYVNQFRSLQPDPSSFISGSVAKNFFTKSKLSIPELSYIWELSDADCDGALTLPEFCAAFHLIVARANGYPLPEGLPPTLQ

[12] = biological target: T1, EH domain of POB1 fused to GST (human); test: as above
[13] = biological target: T2, GST-POB1 EH domain F344A (human); test: as above
[14] = biological target: T12, GST-POB1 EH domain K312A (human) (UniProt Q8NFH8); test: as above
T12 sequence: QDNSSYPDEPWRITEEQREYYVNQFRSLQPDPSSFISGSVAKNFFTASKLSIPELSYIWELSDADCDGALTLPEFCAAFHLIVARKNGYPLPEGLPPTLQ

[15] = biological target: T13, GST-POB1 EH domain double mutant K312A-K351A (human) (UniProt Q8NFH8); test: as above
T13 sequence: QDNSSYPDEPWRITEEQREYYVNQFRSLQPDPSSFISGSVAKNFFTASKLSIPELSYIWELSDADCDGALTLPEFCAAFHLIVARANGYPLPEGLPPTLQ

[16] = biological target: T14, GST-POB1 EH domain W324A (human) (UniProt Q8NFH8); test: as above
T14 sequence: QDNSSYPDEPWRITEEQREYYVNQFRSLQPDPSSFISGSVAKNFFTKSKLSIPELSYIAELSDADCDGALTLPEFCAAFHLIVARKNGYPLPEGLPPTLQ

binding [1]: binds | binding [2]: binds
Molecule: Epsin1 (from UniProt Q9Y6I3 1-576)

binding [3]: binds | binding [4]: binds | binding [5]: binds | binding [6]: binds | binding [7]: binds | binding [8]: binds | binding [9]: binds | binding [10]: binds
B1: full-length POB1 fused to the Myc epitope (protein, UniProt Q8NFH8 1-660)
chain: MEAAAAAAAAAAAAAAAGGGCGSGPPPLLLSEGEQQCYSELFARCAGAAGGGPGSGPPEAARVAPGTATAAAGPVADLFRASQLPAETLHQITELCGAKRVGYFGPTQFYIALKLIAAAQSGLPVRIESIKCELPLPRFMMSKNDGEIRFGNPAELHGTKVQIPYLTTEKNSFKRMDDEDKQQETQSPTMSPLASPPSSPPHYQRVPLSHGYSKLRSSAEQMHPAPYEARQPLVQPEGSSSGGPGTKPLRHQASLIRSFSVERELQDNSSYPDEPWRITEEQREYYVNQFRSLQPDPSSFISGSVAKNFFTKSKLSIPELSYIWELSDADCDGALTLPEFCAAFHLIVARKNGYPLPEGLPPTLQPEYLQAAFPKPKWDCQLFDSYSESLPANQQPRDLNRMEKTSVKDMADLPVPNQDVTSDDKQALKSTINEALPKDVSEDPATPKDSNSLKARPRSRSYSSTSIEEAMKRGEDPPTPPPRPQKTHSRASSLDLNKVFQPSVPATKSGLLPPPPALPPRPCPSQSEQVSEAELLPQLSRAPSQAAESSPAKKDVLYSQPPSKPIRRKFRPENQATENQEPSTAASGPASAATMKPHPTVQKQSSKQKKAIQTAIRKNKEANAVLARLNSELQQQLKEVHQERIALENQLEQLRPVTVL

binding [11]: no binding | binding [12]: binds | binding [13]: binds | binding [14]: no binding | binding [15]: no binding | binding [16]: no binding
B2: full length Eps15 (endogenous, Hek293) (protein, UniProt P42566 1-896)
chain: MAAAAQLSLTQLSSGNPVYEKYYRQVDTGNTGRVLASDAAAFLKKSGLPDLILGKIWDLADTDGKGILNKQEFFVALRLVACAQNGLEVSLSSLNLAVPPPRFHDTSSPLLISGTSAAELPWAVKPEDKAKYDAIFDSLSPVNGFLSGDKVKPVLLNSKLPVDILGRVWELSDIDHDGMLDRDEFAVAMFLVYCALEKEPVPMSLPPALVPPSKRKTWVVSPAEKAKYDEIFLKTDKDMDGFVSGLEVREIFLKTGLPSTLLAHIWSLCDTKDCGKLSKDQFALAFHLISQKLIKGIDPPHVLTPEMIPPSDRASLQKNIIGSSPVADFSAIKELDTLNNEIVDLQREKNNVEQDLKEKEDTIKQRTSEVQDLQDEVQRENTNLQKLQAQKQQVQELLDELDEQKAQLEEQLKEVRKKCAEEAQLISSLKAELTSQESQISTYEEELAKAREELSRLQQETAELEESVESGKAQLEPLQQHLQDSQQEISSMQMKLMEMKDLENHNSQLNWCSSPHSILVNGATDYCSLSTSSSETANLNEHVEGQSNLESEPIHQESPARSSPELLPSGVTDENEVTTAVTEKVCSELDNNRHSKEEDPFNVDSSSLTGPVADTNLDFFQSDPFVGSDPFKDDPFGKIDPFGGDPFKGSDPFASDCFFRQSTDPFATSSTDPFSAANNSSITSVETLKHNDPFAPGGTVVAASDSATDPFASVFGNESFGGGFADFSTLSKVNNEDPFRSATSSSVSNVVITKNVFEETSVKSEDEPPALPPKIGTPTRPCPLPPGKRSINKLDSPDPFKLNDPFQPFPGNDSPKEKDPEIFCDPFTSATTTTNKEADPSNFANFSAYPSEEDMIEWAKRESEREEEQRLARLNQQEQEDLELAIALSKSEISEA

From paper PMC2238750
